Experimental data reported in PubChem BioAssay AID938 (National Center for Advancing Translational Sciences (NCATS), 2007).
In all, about 73,000 compounds went through this assay and about 1,800 (2.5%) were called active. This list was built around the results that the source calls inconclusive (neither active nor inactive); the mix of calls is not that of the screen. Calls come from the whole dose curve; as a rule, active = well fitted activation curve with a large enough effect; inconclusive = small, poorly fitted or top-dose-only effect; inactive = no such curve, though single readings can be large or run the other way. Potencies of inconclusive entries are left out as doubtful fits.

Assay: qHTS Assay for Agonists of the Thyroid Stimulating Hormone Receptor: Activators of Intracellular cAMP Concentrations in Parental HEK 293; note: nearly all actives have a fitted effect of over 55% in size; for activation: % of control where 0% means no effect
Conditions: parental HEK293 CNG cAMP sensor, membrane potential fluorescence; activation: at 57.1 µM (top of the series) unless noted
Outline: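 Counterscreen for endogenous-receptor signalling: CNG-channel HEK 293 cells report cAMP rise by membrane depolarization. After 60 min dye equilibration with 100 uM RO 20-1724, compounds incubated 30 min before bottom-read fluorescence at 590 nm.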
Potency is the fitted concentration of half-maximal effect; tags give direction and shape of the fitted curve.

Compound	activation	Potency
CC1=C/C(=C(/c2ccc(O)c(C)c2)c2ccccc2C(=O)O)C=CC1=O	inactive: 4.95% [at 11.4 µM]	
CC(CCc1ccccc1)NC(=O)C1CCCN(C(=O)c2cc3sccc3n2C)C1 (centres undefined)		inconclusive [activator, partial curve]
Cc1ccc(CNC(=O)c2ccc(Cn3nc(C)c(Cl)c3C)o2)cc1		inconclusive [activator, single point]
CCOC(=O)C1CCN(c2ncnc3c2oc2ccccc23)CC1		active: 25.1 µM
O=C(NC1CCCC1)c1cnn2c(C(F)(F)F)cc(-c3ccc4c(c3)OCO4)nc12		inconclusive [activator, partial curve]
CCOC(=O)c1ccccc1NC(=O)c1cncc(Br)c1		inconclusive [activator, single point]
CCOc1ccccc1-c1cc(-c2ccc(OC)cc2)nc2c1c(=O)n(C)c(=O)n2C		inconclusive [activator, partial curve]
C[N+](C)(C)c1ncnc2c1ncn2[C@@H]1C[C@H](O)[C@@H](CO)O1	inactive: 6.12% [at 11.4 µM]	
COc1ccccc1NC(=O)C(C/C=C(\C)Cl)C(C)=O (centres undefined)		inconclusive [activator, single point]
CCCn1c(SCC(=O)Nc2c(CC)cccc2CC)nnc1C(C)C		inconclusive [activator, partial curve]
COc1ccc(-c2noc(-c3ccccc3C(=O)NCc3ccco3)n2)cc1		active: 15.8 µM
Oc1ccc(N2CCN(C(c3cccnc3)c3nnnn3Cc3ccccc3)CC2)cc1 (centres undefined)		inactive
CN1CCN(C(CNS(=O)(=O)c2ccc(F)cc2)c2cccnc2)CC1 (centres undefined)		inconclusive [activator, single point]
O=C(C1Cc2ccccc2O1)N1CCCCC1 (centres undefined)		inconclusive [activator, single point]
CC(C)N1C(=O)c2ccccc2C1C(=O)NC1CCCCCC1 (centres undefined)		inconclusive [activator, partial curve]
Nc1ccc(-c2nc3ccc(-c4nc5ccccc5o4)cc3[nH]2)cc1		inactive
CCC(C)c1ccc(NC(=O)c2cccnc2)cc1 (centres undefined)	inactive: 0.0112% [at 11.4 µM]	
COc1cccc(Nc2nc(-c3sc(N)nc3C)cs2)c1		inactive
CCOC(=O)C1CCCN(Cc2cc(Br)ccc2OC)C1 (centres undefined)		inconclusive [activator, partial curve]
CCSc1nc(-c2ccco2)ccc1C#N		inactive
O=C(C1CCC1)N1CCc2cc(S(=O)(=O)NCC3COc4ccccc4O3)ccc21 (centres undefined)		inconclusive [activator, partial curve]
FC(F)(F)c1cc(-c2ccccc2)nc(N2CCCCC2)n1		inactive

Compound	activation	Potency
Cc1cccc(Cn2c(N3CCN(c4ccccc4)CC3)nc3c2c(=O)n(C)c(=O)n3C)c1		inconclusive [activator, single point]
COc1cccc(C2=NOC(C(=O)NC3CCCCC3)C2)c1 (centres undefined)		inconclusive [activator, single point]
Cc1cccc(OCc2nnc(SCn3nnc4ccccc4c3=O)o2)c1		active: 25.1 µM
c1ccc(-c2oc3ncnc(N4CCOCC4)c3c2-c2ccccc2)cc1		active: 15.8 µM
CC1(C)CC(=O)C(C=Nc2ccc3c(c2)OCO3)=C(O)C1		inconclusive [activator, partial curve]
c1ccc(-c2nnc(CSc3nc4ccccc4[nH]3)o2)cc1		inactive
CSCC[C@H](NC(=O)OC(C)(C)C)c1nnc(SCc2cccc(F)c2)o1		inconclusive [activator, single point]
C/C(NC1CCCCC1)=C(/C#N)C(=O)NCCN1CCOCC1		inconclusive [activator, single point]
CCn1cc(C2=NOC(C(=O)Nc3cc(OC)c(Cl)cc3OC)C2)c(C)n1 (centres undefined)		inconclusive [activator, single point]
CC(C)CCNC(=O)CN(C(=O)CCC(=O)Nc1ccccn1)c1ccc2c(c1)OCO2		inconclusive [activator, full curve]
O=C(Nc1nccs1)c1cc2sccc2n1Cc1ccc(F)cc1		inconclusive [activator, single point]
CCCOc1ccc2ccccc2c1/C=N/n1c(C)nnc1-n1nc(C)cc1C		active: 3.98 µM
N[C@@H](Cc1cc(-c2ccc(Cl)cc2Cl)cc(CP(=O)(O)O)c1O)C(=O)O		inconclusive [activator, partial curve]
NCCC[C@@H](CC(=O)N[C@@H]1CCNC[C@H]1C(=O)N[C@H](CC(=O)N[C@@H](CCC(=O)O)CC(=O)O)Cc1c[nH]c2ccccc12)NC(=O)C[C@H](Cc1c[nH]c2ccccc12)NC(=O)[C@@H]1CNCC[C@H]1N		inconclusive [activator, single point]
Oc1cccc(C(=S)N2CCN(Cc3ccccc3)CC2)c1		inactive
Cc1cc(SCC(=O)NC(=O)NCc2ccco2)nc2ccccc12		inconclusive [activator, single point]
CC(=O)NCCNc1ncnc2ccc(-c3cccc(NS(C)(=O)=O)c3)cc12		inconclusive [activator, single point]
COCCn1nnnc1C(C(C)C)N(Cc1cccnc1)Cc1cc2cc(OC)ccc2[nH]c1=O (centres undefined)		inconclusive [activator, single point]
O=C(c1ccc(COc2ccc(Cl)cc2)o1)N1CCN(Cc2ccc3c(c2)OCO3)CC1		inconclusive [activator, single point]
Cc1ccc(CN2CCN(C(=O)C3CCCO3)CC2)cc1 (centres undefined)		inconclusive [activator, single point]
COC(=O)c1ccccc1NC(=O)Cn1c(-c2nonc2N)nc2ccccc21		active: 15.8 µM
N#Cc1c(NC(=O)CCCN2C(=O)c3ccccc3C2=O)oc(-c2ccccc2)c1-c1ccccc1		inconclusive [activator, full curve]
